Data on 14 molecules can be found in PMC12136788.

First the molecules themselves.
T1: UNK ZnF1-3 (human, UniProt Q9C0B0 31-174)
T1 sequence: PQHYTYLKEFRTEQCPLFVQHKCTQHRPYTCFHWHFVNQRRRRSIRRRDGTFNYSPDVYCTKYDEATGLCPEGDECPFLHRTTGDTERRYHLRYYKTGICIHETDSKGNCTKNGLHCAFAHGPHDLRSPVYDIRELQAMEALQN

B1: chr4:44140560:44140561:-_ENSMUSG00000035696_ENSMUST00000045793|mus_hu|motif|central (ssRNA)
RNA: GGGAGUUCUACAGUCCGACGAUCUAGAAGUAUUUCUGAUGCACUGACAACCCUAGGGGCAAACACAGUAUGCAAAACCCGGCUUGUAGGACUAGAUAGAGGCAACAAUGUCUCGCAAAGGGCAAAAUUGUGCUUCUGUGAAUUCAACAGAGGAUUGAGCAUCA
B2: chr1:135197953:135197954:+_ENSMUSG00000041757_ENSMUST00000038295|mus_mus|FALSE|FALSE (ssRNA)
RNA: GGGAGUUCUACAGUCCGACGAUCGAGCUGAUCCCAUCUACCAGUCUUUAAGGAGGAAGGGGCAGAUUUGGGGUGCUUGAACUAUGCAGAUAGGGGAUGUCAUGAAGGAGCACUUUCCAGAAGCCAGAGAGAGGCAAAAACAGGCAACAGAGGAUUGAGCAUCA
B3: chr2:172803269:172803270:+_ENSG00000128708_ENST00000264108|hu_mus|motif|central (ssRNA)
RNA: GGGAGUUCUACAGUCCGACGAUCGAAAGCAGUUUCAUCAUCCCCAAAGAGCUGAUGGGUAUAUUCAGGAAAGAAAGUUCGGAUGUCAUUCUCAAGAUCUUCAGGAAAACGAACUAGUUUCAGCUCGAUUGCUGUGUUGGUGUUCAACAGAGGAUUGAGCAUCA
B4: chr16:94651144:94651145:+_ENSMUSG00000040785_ENSMUST00000117648|mus_hu|mus_mus_mus_hu_True|98_98 (ssRNA)
RNA: GGGAGUUCUACAGUCCGACGAUCAUUUUCUUGAAUCAAGUGACCGAUAACAUAGUCCACUGCUUCAUUUAGAAAAUUUCUGCUAGAAAAACAGGUUGUAUAGUCUUCUGUGCUCAAAACUUUCCAAGAAAGCAAUUCUUUGAGCAACAGAGGAUUGAGCAUCA
B5: 36537775_36539393_140_3pUTR_ENSMUSG00000043671_ENSMUST00000051377|mouse|control|control (ssRNA)
RNA: GGGAGUUCUACAGUCCGACGAUCCUGCGGCCUCAGCAGUCCUCAGGGGCGGCUCGGGUUGGCAAAGAAGCACCCCGAGCACCCAGGCCUUAGGGACGCGCCCACUUCACGGGCUACAGCGAGGUGAAGACUAGGAGGACCCAGCAACAGAGGAUUGAGCAUCA
B6: chr1:46159212:46159213:+_ENSG00000159596_ENST00000372025|hu_mus|hu_hu_hu_mus_True|88_108 (ssRNA)
RNA: GGGAGUUCUACAGUCCGACGAUCUCUGAUCCCACCCAAGAAAGCUAGGAAACUGGCUCCAUAAGCCAUCUGAGUGAAAGCUAGGACGGGGAUAUAAGACUUUGUUAUUACCAUGAGAAGUGGGGGAGCAGUAAAGGGGAUUAACAACAGAGGAUUGAGCAUCA
B7: chr4:128450444:128450445:-_ENSMUSG00000028799_ENSMUST00000106072|mus_hu|FALSE|FALSE (ssRNA)
RNA: GGGAGUUCUACAGUCCGACGAUCGGGUGUUAACAGUAUGUAUAACAGCGUAUUUACAGGGAGUAACAUGCGGACAAAAAGCUACAAUACUGAGUAUCAGACGACGCAAGUCAAACAAAGGGCCGGGGGUGGGGGCAGAGAACCCAACAGAGGAUUGAGCAUCA
B8: chr5:145543945:145543946:-_ENSG00000133706_ENST00000545646|hu_hu|hu_hu_hu_mus_True|68_78 (ssRNA)
RNA: GGGAGUUCUACAGUCCGACGAUCCUGAACGGCCAGUGGUGGGAAAUAAUCAAGCCAAUGUUCUGCUUCAGAAAAUUUCACUAUGUCGUCAUCAGAGAGCCCAAGGGAUUUCAUAAUGUCCCACUGGUACUUAGAAGAUCCUGCCAACAGAGGAUUGAGCAUCA
B9: chr8:67243003:67243004:-_ENSMUSG00000031605_ENSMUST00000034017|mus_mus|FALSE|FALSE (ssRNA)
RNA: GGGAGUUCUACAGUCCGACGAUCAUCACUGGAGAUUAAGCUGCACACCUGCUCGAUGCCGAGGUUAAGAAACUCUUCACUAAGUACGACAUCUGCAAAAUGUUGUUCUGCAUACGUGUUGGCCUUAUUCAGGAGGUCUGUGCACAACAGAGGAUUGAGCAUCA
B10: chr18:67649703:67649704:-_ENSMUSG00000024533_ENSMUST00000115050|mus_hu|motif|central (ssRNA)
RNA: GGGAGUUCUACAGUCCGACGAUCGUUACUGUAUUUUGAUGUGGUAUGAAAUGCAGCCGCCAUGCCUUUCAUGAAACGGUGCGGUCGUGGUGCUGACUACAGACAUGUCCUAUGGCUUUCAGGAAAUUAUUGUGCAUGUGCAUUCAACAGAGGAUUGAGCAUCA
B11: 14041113_14041233_1033_ncRNA_ENSMUSG00000068036_ENSMUST00000124922|mouse|control|control (ssRNA)
RNA: GGGAGUUCUACAGUCCGACGAUCCAAAAGCUAACAGAAACAGGUAACUUCAUGUGAGUCAGAUCACAAAGAACUAGACAGGAUUUUUCUUGGUAAAGUAAAACGAAGUUUCUUGGAAUUGGAACAUCUCUAAAUUGCAACCAUCAACAGAGGAUUGAGCAUCA
B12: 63775417_63775537_632_3pUTR_ENSMUSG00000021273_ENSMUST00000054963|mouse|control|control (ssRNA)
RNA: GGGAGUUCUACAGUCCGACGAUCCCUUCCUGUUGGUCUUCCAGAUAAUCACGAAUGAUAUUUGUUUUCUGCAGGAACAGACCCAUUGAGUUGGCACACUCUAUGUCUUCACCAACUAUGGGGUCUUCAAACUCUGAGGCAGAGCAACAGAGGAUUGAGCAUCA
B13: 70225431_70225551_570_CDS_ENSG00000138346_ENST00000358410|human|control|control (ssRNA)
RNA: GGGAGUUCUACAGUCCGACGAUCCAAAUGUCUUAUUUCUUGAAUUGUUUGAAAAGCAAGUUCUUGUAGCUUUUCUGGGGCAAAGCUAUUAUUUAUGGCUUUUUGAAACACCUCAUGGAGAACCGUACCAAUUAGCAUUUGGCGCAACAGAGGAUUGAGCAUCA
B14: chr3:58389919:58389920:+_ENSMUSG00000075700_ENSMUST00000107924|mus_hu|motif|central (ssRNA)
RNA: GGGAGUUCUACAGUCCGACGAUCGCUAGGAGCUUGCAUGCCAAAGAAAGCAAAAGGAUCCUUGCCAACAAUUAUUAAGCCGGUUAAUACUAGUUUGAAGACUGACAGGAAAGAUGCUAUGUGUCUAUAUAUUGGUUGAGGGAGCAACAGAGGAUUGAGCAUCA

Some of the results follow.

In the experiment the target is T1, UNK ZnF1-3. Description: nsRBNS (natural sequence RNA bind-n-seq); RBNS binding buffer (assumed for nsRBNS): 25 mM Tris pH 7.5, 150 mM KCl, 3 mM MgCl2, 0.01% Triton X-100, 500 ug/ml BSA, 20 U/ml SUPERase-In, 4 C; UNK is unkempt and MSI1 is Musashi-1; names of the RNAs are library labels; protein concentration not given here; high values mean tight binding.
In turn, B1 came in with a binding signal of 0.966 enrichment R.
As for B2, the figure is 2.5 enrichment R; as for B3, 1.06 enrichment R; as for B4, 0.357 enrichment R.
Then B5, with 0.663 enrichment R.
As for B6, the figure is 1.11 enrichment R.
B7: the binding signal amounted to 1.85 enrichment R.
As for B8, the binding signal was found to be 1.31 enrichment R.
Consider B9, for which the binding signal stood at 0.718 enrichment R.
As for B10, the figure is 0.827 enrichment R; as for B11, 1.53 enrichment R; as for B12, 0.405 enrichment R.
Then B13, with 0.942 enrichment R; and B14, with 1.39 enrichment R.
